# Source: the supplement of paper PMC12217912
# The other results are listed elsewhere or left out. The full chains were built here from the parent and the listed change. Values near 0.05 are background.
# B1: TEV protease; numbered along this chain (parent)
# chain: MGESLFKGPRDYNPISSSICHLTNESDGHTTSLYGIGFGPFIITNKHLFRRNNGTLVVQSLHGVFKVKDTTTLQQHLVDGRDMIIIRMPKDFPPFPQKLKFREPQREERICLVTTNFQTKSMSSMVSDTSCTFPSGDGIFWKHWIQTKDGQCGSPLVSTRDGFIVGIHSASNFTNTNNYFTSVPKNFMELLTNQEAQQWVSGWRLNADSVLWGGHKVFMVKPEEPFQPVKEATQL
# Variants of: B1
# Experiment: raw area under fraction-flipped curve 0-4 h after induction (AUC4h, not background-subtracted), DNA-recorder readout of cleavage of the substrate (dimensionless); higher = more cleavage of the substrate by the protease variant
# Conditions: temperature: 34 °C; time window: 0-4 h after rhamnose induction
# Experimental: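 In vivo DNA recorder in E. coli TOP10(DE3) ΔrhaA at 34 °C. Each TEVp single-site mutant (parent TEVp 0) is paired with a single-site variant of the 7-mer TEVs (canonical ENLYFQ|S). The substrate sits between flexible linkers in a Bxb1-sfGFP-TEVs-SsrA fusion, so cleavage stabilises Bxb1 and speeds flipping of a recombination array, read by NGS. The value is the raw area under the fraction-flipped curve over 0-4 h after rhamnose induction (AUC4h), with ≥20 reads per time point. It is not background-subtracted; inactive controls average about 0.047.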
# 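Note: Bxb1 expression induced with 0.2% (w/v) L-rhamnose at OD600 near 0.5, cultures sampled hourly, flipped fraction per protease–substrate barcode pair counted by paired-end Illumina sequencing.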
Variant,area with substrate ENLAFQS,area with substrate ENLCFQS,area with substrate ENLDFQS,area with substrate ENLFFQS,area with substrate ENLIFQS,area with substrate ENLLFQS,area with substrate ENLNFQS,area with substrate ENLPFQS,area with substrate ENLQFQS,area with substrate ENLSFQS,area with substrate ENLWFQS,area with substrate ENLEFQS,area with substrate ENLGFQS,area with substrate ENLHFQS,area with substrate ENLKFQS,area with substrate ENLMFQS,area with substrate ENLRFQS,area with substrate ENLVFQS,area with substrate ENLTFQS
S201R,0.0684,0.0916,0.0703,0.0844,0.085,0.0523,0.0651,0.0567,0.0673,0.0619,0.0709,–,–,–,–,–,–,–,–
G150H,0.0655,0.0578,0.0634,0.0617,0.059,0.0695,0.0575,0.0707,0.0648,0.0518,–,0.066,0.0611,0.0612,0.068,0.0743,0.0707,0.0431,–
G150V,0.0588,0.0644,0.0637,0.0551,–,0.0483,0.0649,0.0587,0.0587,0.057,0.0633,0.058,0.0685,0.0649,0.0678,–,0.0613,0.0672,0.0549
D161A,0.0648,0.0554,0.0592,0.0665,0.0592,–,0.0587,0.0504,–,0.0607,–,0.0591,–,0.0609,0.0603,–,0.0695,0.0655,–
D161W,0.044,0.054,0.0483,0.0653,0.046,0.0671,0.0484,0.0536,0.0509,0.053,0.0516,0.0429,–,0.051,0.0517,–,0.0423,0.0382,0.0319
L211Q,0.0794,0.037,0.064,0.0873,0.0744,0.0817,0.0528,0.0635,–,0.0589,0.0833,–,0.055,0.0836,0.0962,–,–,–,–
R204L,0.0646,0.0711,0.0675,0.0669,–,–,0.0635,0.0609,0.0629,0.0729,0.0603,0.0609,–,0.0811,0.0703,0.0597,0.0635,–,0.05
T192M,0.0569,0.0694,0.0639,0.0955,0.0792,0.0718,0.0715,0.0596,–,–,0.0754,0.0668,0.0662,0.0899,0.0715,–,0.0726,–,0.0628
L205G,0.0512,0.0471,0.0614,0.063,–,0.0634,0.0568,0.0591,0.0592,0.0908,0.0362,0.0581,–,0.0608,0.0784,0.0855,0.0582,0.042,–
L205M,0.0726,–,0.0476,0.109,–,–,0.0615,–,0.0964,0.0588,0.101,–,–,0.088,0.0941,–,–,0.0958,–
S154H,0.0609,–,0.0572,0.0641,0.0655,0.0633,0.0705,0.0597,0.068,0.0735,0.0632,0.0696,–,0.0624,0.0648,0.0806,0.0604,0.0899,–
W141I,0.0482,–,–,0.0572,0.0561,0.0512,0.0459,–,0.0667,0.0385,–,0.0622,–,–,0.0609,–,–,0.0664,–
D149Y,0.0572,0.0463,0.0588,0.0996,0.0462,–,0.0512,0.0629,0.0472,–,0.0611,0.0582,–,0.0658,0.0446,0.0637,–,0.107,–
G166D,0.0523,0.0638,0.052,0.0458,–,–,0.0512,0.0501,0.0404,0.0273,0.0411,0.0703,–,0.0429,0.0542,0.0811,0.0544,0.0513,–
L190Y,0.0589,0.0741,0.0752,0.0769,0.0701,0.052,0.0643,0.0534,–,0.0775,0.0783,0.0571,0.0455,0.0693,0.15,–,–,–,0.073
S209V,0.0622,–,0.0615,0.0911,–,0.0722,0.0659,0.0631,0.0821,0.0663,0.0629,0.0655,0.0587,0.0749,0.0689,–,0.0716,–,–
Q146C,0.0593,–,0.0578,0.105,0.08,0.0922,0.0554,0.0533,0.0669,0.0825,0.0796,–,0.0346,0.0588,0.0849,–,–,–,0.0702
Q146T,0.0664,–,0.0553,0.0757,–,–,0.0719,0.0752,0.0534,0.0615,0.0684,0.0613,0.0707,0.102,0.0742,–,0.0926,–,–
Q146M,0.0332,–,–,0.109,–,0.0916,0.0417,0.0574,0.0661,–,0.0764,0.0698,–,–,0.0954,0.0808,0.0555,–,–
S171M,0.0771,–,–,0.0455,0.0638,0.0612,0.0485,–,0.0479,0.0793,0.067,–,–,0.0527,0.0695,0.0674,0.0567,0.0825,0.0716
S171F,0.0621,0.0595,0.0615,0.0572,–,0.0478,0.051,0.0503,–,–,–,–,0.105,0.0602,0.0641,0.0856,–,–,–
S171L,0.0616,–,0.0695,0.06,0.0601,–,0.0623,0.0491,0.0579,–,–,0.0708,–,0.0489,0.0598,–,0.0528,–,–
F187M,0.0416,0.0739,0.0609,0.111,–,0.0723,0.0652,–,–,0.0592,0.0612,0.0531,0.0562,0.0724,0.07,–,0.069,0.0733,–
I145K,0.0623,0.0627,0.0577,–,0.0662,–,0.056,0.0476,–,0.0556,–,0.0701,–,0.055,–,–,0.057,–,–
K148E,0.0833,0.0753,0.0684,0.0675,0.0828,0.0725,0.0616,0.0381,0.071,0.0683,0.0647,0.0601,0.078,0.0777,0.0658,–,0.0707,0.084,–
